According to the supplement of paper PMC3334620:
In all, about 33,000 sequences were measured (“E-score (-0.5 to 0.5)”: median about -0.016, highest 2% from about 0.32 on). Some of the results follow.

molecular target: T1, Stp1 (UniProt B3LFK1); experiment: PBM E-score (8-mer binding enrichment) (E-score (-0.5 to 0.5)); higher = stronger / more preferred TF binding; most listed sequences are background and not binding sites; details: protein concentration: 200 nM; construct: GST-full length
T1 sequence: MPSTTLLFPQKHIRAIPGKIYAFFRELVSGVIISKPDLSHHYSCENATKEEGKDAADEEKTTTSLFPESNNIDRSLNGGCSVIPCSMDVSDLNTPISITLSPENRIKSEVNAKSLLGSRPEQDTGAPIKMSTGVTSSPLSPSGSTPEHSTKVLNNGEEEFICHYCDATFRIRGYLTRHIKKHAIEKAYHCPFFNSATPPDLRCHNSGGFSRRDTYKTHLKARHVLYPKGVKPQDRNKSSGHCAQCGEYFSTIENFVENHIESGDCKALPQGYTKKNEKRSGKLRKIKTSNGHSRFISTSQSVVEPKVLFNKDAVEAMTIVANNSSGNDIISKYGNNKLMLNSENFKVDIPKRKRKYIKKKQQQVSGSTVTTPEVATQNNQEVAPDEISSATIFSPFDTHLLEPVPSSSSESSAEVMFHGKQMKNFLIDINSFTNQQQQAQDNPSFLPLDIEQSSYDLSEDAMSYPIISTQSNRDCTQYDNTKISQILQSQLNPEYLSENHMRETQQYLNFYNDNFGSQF
Procedure, shortened: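 For each ungapped eight-base word taken together with its reverse complement, the Universal PBM Analysis Suite assigned an E-score. Binding data came from GST-tagged yeast transcription factors, applied at about 100-200 nM, on universal all-10-mer Agilent arrays made double-stranded by primer extension. Fluorescent anti-GST marked bound protein, and scans were normalised with masliner.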

Sequence	PBM E-score
GCCATCAC	-0.108
CCCATTGA	0.0975
GCACTCTA	-0.0288
ATGTATGA	-0.0416
CAACTAAA	0.135
AACGAGTT	-0.18
ATCTTTGC	0.262
ACGTTTAA	0.12
CTCGTTAA	-0.0134
AATTCGGA	0.0454
GGCGTCCA	0.139
CAACGTTG	0.195
GCAAACAA	0.117
AGTCAAAC	-0.0852
GGCAACTA	0.222
ACGGGTAT	0.206
CAACATCG	0.0749
CGGATCAG	-0.00649
GATAAACA	0.0115
GCTTTACA	0.112
ACATAGGG	-0.00181
GAGCACTC	-0.112
GGACACCA	0.0259
CTTGATAC	0.113
AAGCGCAC	-0.175

Sequence	PBM E-score
GCCATAAC	-0.207
CAGGCGCC	0.286
TACTCATA	0.0338
CTTCCACA	0.0466
ATCGCCAC	0.286
AGGATTAC	-0.0414
CCTAAAAC	-0.0975
GAAATCCC	-0.202
ACGAGCTA	-0.122
GGTCTGGA	-0.28
ATGTTAAG	0.0614
AAACTTTG	0.24
GGCGTCAC	0.179
GGGCCCTA	-0.215
AACGAAAC	0.136
CTGAGCCA	-0.0648
TGAAAGCA	0.108
ACGATCAG	-0.035
GCTCCAAC	0.191
GTAACCTA	0.137
AACATCTC	-0.101
CATCGCGG	0.0513
ATGCCATG	0.276
TGCTGAAA	-0.00267
AGCGCATC	-0.26

Sequence	PBM E-score
AAATCACT	0.00777
TACAGGTA	0.015
CTGTCTCC	-0.179
ACGCTCCT	-0.0745
AAACCGGC	-0.0811
GCTTGCAC	-0.0781
CCTATCAC	-0.0327
CGAGACGA	-0.154
GGCGCCCC	0.284
ATTAGGCA	0.127
AGGAATAT	0.137
GACCTATA	0.139
ACTGAACT	0.0818
AGGCTGCA	0.00538
AGTGCACT	0.0116
CCGGCTAG	-0.317
GGCCACCC	-0.156
CAGGTTGC	-0.073
GTGTATTA	0.202
GGGAGAAA	-0.249
CCGTGTGC	0.312
ATCTGGAG	-0.0951
TAGGTTGA	-0.126
CCTTCGGC	0.0287
GCAAGACC	-0.148

Sequence	PBM E-score
CACATTGG	-0.01
CGGCTGAA	0.0878
ATCAATCA	0.112
AGCGGCCG	0.285
CGGCTTCC	0.211
AACCCTCA	-0.269
GCGCTAGC	-0.155
CGCAGCCC	0.0195
GGACAGCC	0.0472
GGCCGACA	-0.134
AGTTACAA	0.143
ATAGTAAT	0.196
AGACCAGG	-0.205
TCCTTACA	0.0795
CGTCCTAC	-0.06
GCCACGCA	0.039
AAGTGTGA	0.0119
CCGTACAC	0.168
CAAGGGGG	-0.123
ATCTGGAA	0.131
GGCATTCA	0.267
GCAGTGAC	0.0167
GTGCTAGA	-0.198
GGAAAAAC	0.132
TCTATGCA	-0.0103

Sequence	PBM E-score
ACACTAAG	-0.0632
CACGCGTA	0.138
AATGCTGC	-0.0328
CTGTACCA	-0.242
ATGACGTG	0.0346
ACGAAGCC	0.152
GACCACGA	-0.124
CCCATACC	-0.0293
GAACATCC	0.149
AGCGCAAA	-0.0739
GACGGCGC	0.451
AACTAGAT	0.128
CGCTGCGC	-0.0335
AAGTCGAA	-0.227
ATCAATAA	0.169
CGTCAAAC	0.048
AACCGCTA	-0.174
AACCAATT	0.0149
AAGCTAGT	-0.223
GCTGTCCA	0.0285
CTTTGAAA	0.129
TCAGTCCA	-0.327
CGGCAGTC	0.297
CGGCGGCA	0.418
TATAGCCA	0.108

Sequence	PBM E-score
CCAGTTCC	-0.17
AAACCTTT	0.0309
AAAGATCT	-0.138
TACTTATA	0.11
TAATTTGA	-0.0521
CATGTCGA	0.0774
CGCATCAC	0.0369
ATACGTTG	-0.144
TCCGGCCA	-0.135
ATCTCGCC	0.122
AGTCTGTC	-0.121
ACTAGTGG	-0.268
TCGCCGCA	0.448
CGACGCAA	-0.139
ATAGCAAC	0.0551
AAGAGGGA	-0.254
AGGTGTGA	-0.246
AGAGACGG	0.0667
CCTCGTAA	0.108
AGCGATAG	-0.247
CCATGTTA	-0.0633
CGCAGGCG	0.202
ACGAGACC	-0.227
CCAGTTTA	-0.13
AACTTCTA	0.0296

Sequence	PBM E-score
ACAGAGAG	-0.265
TAATACCA	0.0826
AGCGTCGG	-0.0333
GCGGTCAC	-0.136
AGGTCACA	-0.173
AATGACAA	0.0544
CAGGGCGG	-0.116
AACAACGA	-0.0516
AGGACCTA	-0.0221
TAGGCGAA	0.0312
CGAGGTGA	0.0486
CCATGGGG	0.0247
CACTCCCC	-0.116
GGAATCTA	-0.0385
AAATAGTC	-0.157
GAGAAGGC	0.147
AGCCAATA	-0.0625
CACTCTGG	-0.0124
CGTACTTA	0.0887
CAACCGCA	-0.0953
ATGATCTC	-0.0101
CACCACCC	-0.0675
AAGCTCGC	-0.0559
CGTGAGTA	0.131
AACTTGGG	-0.0701

Sequence	PBM E-score
GACCGCCA	-0.0648
CAACTAGG	-0.0204
ATACATCC	0.00593
CAATTTCC	0.0523
GATGCAGC	0.0208
AGGCCGAT	0.0722
AATCCATT	0.101
AACTTCCA	0.00271
AGCGCTGG	-0.0981
TATGTCCA	-0.152
GCAGCAAC	0.0851
GGTGCAGA	-0.169
CGGGAGCA	-0.132
CACTTTGC	0.0646
ATGAACCC	-0.1
CACCAAAG	0.204
CTACCTGA	-0.181
AGACCCAT	-0.305
ACGGAGAA	0.0734
CCGTCTTC	0.0653
AATTGCCT	0.0817
ATATTGAG	0.168
AAGCTAAC	0.0708
CTCCCTGA	-0.353
GTACCAGA	-0.0954

Sequence	PBM E-score
CAAATATC	0.183
CGACTGAC	-0.186
GATAGCTA	-0.215
CCCGTACA	-0.0395
ACGCTTCT	-0.0533
CAATCTTC	0.184
GAGCTGGA	-0.135
GCCAACAC	0.0248
GTGCAGTA	-0.142
ATACGCAG	-0.137
CACGCCCC	-0.11
ATCACTCC	-0.218
ATTCCCCC	-0.382
ATCTCGTG	-0.0713
TGGTTTAA	0.142
ACTCAAGA	-0.0476
CTGCACAC	-0.14
ATATTTTC	0.224
ACGCTGTC	-0.238
AAGGCCTC	-0.092
CTACGAGC	-0.0657
CCTAGTCG	0.0105
CTGGGCCC	-0.317
AGGTTGTC	-0.179
GTTTGCAA	0.15

Sequence	PBM E-score
CGACGCTC	-0.0466
ATCTCTGC	0.151
AGTAAATA	0.182
AGATAGCG	-0.298
AACGACCG	-0.273
AACAATGT	0.00785
ATGGCTTG	-0.0553
ATTTACTG	0.105
TAACGCTA	-0.0977
AACCTGTG	-0.298
AATTGGGA	-0.0189
AATGCCCC	0.0145
ACACTAGT	-0.0671
CGATTCGA	0.132
CCGCGCAA	0.184
TCATGCGA	-0.00545
CGAGGCAG	0.12
ATTTCAAC	0.0251
ATTTCGCG	0.177
GGAAACTA	-0.133
AACTCTGC	-0.178
AAGTTGGG	-0.188
CAGGGAGA	-0.163
ACGACGGA	0.123
TACCTCTA	-0.0991

Sequence	PBM E-score
CTCCGAGA	-0.102
CATTGCTC	0.0826
GAAAATAA	0.161
GAGACCCA	-0.232
ACCAGGTG	-0.227
AACTAAGC	0.0727
GTTCATTA	0.143
GTTTAGAA	0.00314
GGCCCGCC	-0.256
CAGTCTTA	0.0126
CTGAGATC	-0.163
AGAAGGAC	-0.124
ATCTGAGC	0.112
GAAAACTC	-0.0692
ATTCGTTC	0.211
AGTTGAGC	-0.204
AGAAGGTA	0.00924
AAGTCGAG	-0.0912
CTGGCGAA	-0.0308
CCACAGGG	-0.133
CGATGTCC	-0.0557
AAAATGCT	0.164
ATCAGTGA	-0.0262
GGAGTTAA	0.0322
CCTATGAC	-0.14

Sequence	PBM E-score
CGTGGTCC	-0.166
CTGACACA	0.026
CACTGTAA	0.0786
ATGTTCAG	-0.203
ACAAGAGT	-0.257
ATAAGAAG	0.168
ATCCACGA	0.0578
CAAGCAGC	-0.13
AGGTTCTA	0.0188
CATTACTA	0.113
GAGGGGGC	-0.277
ATACGCCC	-0.157
GCACGGAC	0.28
ACGTATTG	0.118
TGCTTACA	0.0332
ACGGTCTA	-0.0402
GCTCCGGA	-0.0424
CGCGTCTA	0.0741
AGCAACAG	-0.00103
GATCAGCA	-0.044
TAAATCAA	0.0833
AGGATCGG	-0.0505
AGACCCGC	0.176
ACAGAGGA	-0.127
ATGAGACG	0.0953

Sequence	PBM E-score
TGAGCCCA	-0.108
ACGGATCG	0.0969
AGACCCCA	-0.227
ACCGGAGG	-0.183
CTTGGCGC	0.164
CGATAGAA	-0.0621
CATATTGG	0.00019
AATAAAGC	0.0936
GAAATCAA	0.00677
CAGTTCGC	0.14
AACCAGGG	-0.0815
TATATCCA	0.124
CACAGTCG	-0.108
ATGCAACA	-0.0536
GCTCCGTA	0.15
ATATATAC	0.307
AGCTCCCG	-0.375
CATTCAAA	0.161
GTAGGAAA	0.0684
AAAGCTGG	-0.106
GTGTCAAC	-0.0422
AGAATTTG	0.0544
CAACCCCG	-0.348
CGAACTCC	0.0684
GCCTCAGA	0.117

Sequence	PBM E-score
GCCTATAA	-0.16
GCGGACAC	0.235
AACCCAGC	-0.258
TACCGATA	-0.0157
CAATTTTA	0.0509
AGGGTTGG	-0.0988
AATTGTCT	-0.0167
CCAATCCA	-0.109
ACTCCAGC	-0.165
CCCGTCCG	-0.342
AAGAATGA	-0.0701
AAGATGCT	-0.0653
GCGACAGC	-0.0576
TCTTCCCA	-0.291
CGGCCCAG	0.138
CCTCGACG	-0.0771
ACCACTAG	-0.0753
ACCGTCAT	0.0594
CAGGGGTA	-0.278
